From article PMC6919601, “Identification of Plasmodium dipeptidyl aminopeptidase allosteric inhibitors by high throughput screening” (PLoS ONE, 2019)
Screen size: about 110,000 compounds; about 230 (0.21%) showed an effect of 50% or more. The list shows a part of the results.

The compounds below were run against DPAP1 (Plasmodium falciparum, UniProt Q8IIJ9) (assay: primary screen, percent inhibition; read by cleavage of a fluorogenic dipeptide substrate; higher = more effect of the substance).
Parameters: species or system P. falciparum D10 trophozoite lysates; single well
Experimental: HTS was performed in black 384-well plates. The first and last two columns of each plate contained our negative (DMSO) and positive (10 μM JCP410) controls, and the 20 central columns the test compounds at 10 μM. Compounds were first diluted 50-fold into assay buffer (50 mM sodium acetate, 5 mM MgCl2, 10 mM β-mercaptoethanol, and 0.1% CHAPS, pH 5.5) from a 10 mM DMSO stock plates. One microliter of this 200 μM intermediate stock plate was dispensed into the assay plate. […] After 30 min, the reaction was quenched with 20 μL of 0.5 M acetic acid, and the fluorescent intensity measured at 523 nm (λex = 492 nm) using an Analyst HT multimode plate reader (Molecular Devices).
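Further: 30 min substrate incubation versus DMSO and 10 µM JCP410 controls.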

Chain of DPAP1 (Q8IIJ9 whole entry, looked up): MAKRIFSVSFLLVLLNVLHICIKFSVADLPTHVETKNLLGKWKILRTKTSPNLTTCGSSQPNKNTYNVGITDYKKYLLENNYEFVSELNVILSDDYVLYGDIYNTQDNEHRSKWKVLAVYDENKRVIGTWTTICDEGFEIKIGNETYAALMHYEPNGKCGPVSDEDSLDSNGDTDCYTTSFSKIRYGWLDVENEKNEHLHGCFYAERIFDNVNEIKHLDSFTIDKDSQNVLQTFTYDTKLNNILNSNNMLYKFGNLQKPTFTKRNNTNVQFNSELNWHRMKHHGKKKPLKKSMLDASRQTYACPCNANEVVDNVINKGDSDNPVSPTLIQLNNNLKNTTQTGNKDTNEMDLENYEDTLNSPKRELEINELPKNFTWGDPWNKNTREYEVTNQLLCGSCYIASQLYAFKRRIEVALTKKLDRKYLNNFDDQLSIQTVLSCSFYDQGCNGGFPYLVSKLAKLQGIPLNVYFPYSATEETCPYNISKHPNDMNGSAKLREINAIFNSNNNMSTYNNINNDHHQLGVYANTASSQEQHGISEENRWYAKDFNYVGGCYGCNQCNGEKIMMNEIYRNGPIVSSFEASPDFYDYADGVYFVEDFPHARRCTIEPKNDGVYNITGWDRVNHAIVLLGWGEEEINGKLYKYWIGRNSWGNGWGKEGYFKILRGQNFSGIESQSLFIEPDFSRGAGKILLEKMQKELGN

SMILES | % Inhibition @ 10 uM [%]
Cc1cc(C)cc(CC2CC(=O)N(c3cc(C)ccc3C)C2=O)c1 (stereo not shown) | 2.22
CN(C)CC[S+](O)c1ccccc1 (stereo not shown) | 5.02
O=C(Cc1cccc(O)c1)Nc1cc(-c2ccncc2)cnc1O | -1.05
CN(C)/C=C/c1c(C#N)c(=O)ncn1Cc1ccccc1 | -1.69
COc1ccc(C2C(C#N)=C(N)OC3=C2C(=O)CCC3)cc1COCC(F)(F)F (stereo not shown) | 1.02
CCO/C(O)=C1/C(C)=Nc2ncnn2C1c1ccc(Cl)cc1 (stereo not shown) | 1.73
Cc1ccc(/C=C2/SC(=O)N(Cc3cc4c(cc3Cl)OCO4)C2=O)o1 | -0.62
C=CCOc1ccc(/C=C2\C(=O)N(CCOC)C(C)=C2C(=O)OCC)cc1 | 0.279
Cc1nc2sc3c(NC4CCCCC4)ncnc3c2c2c1COC(C)(C)C2 | 0.415
COc1ccc(C(=O)Nc2cc(Cl)ccc2C)cc1 | 6.6
COc1ccc(/C=C2/SC(=O)N(CC(=O)Nc3nccs3)C2=O)cc1 | 18.7
O=C(c1ccco1)N1CCN(C(=O)c2cnn(-c3ccc(F)cc3)c2-n2cccc2)CC1 | -2.5
Cc1ccc(NC(=O)CN2C(=O)CSC2=O)cc1C | 2.87
O=C1NC2(Oc3ccccc31)C(=O)Nc1ccccc12 (stereo not shown) | -2.17
CC(CNC(=O)Cn1ccc2cc(S(=O)(=O)N3CCCC3)ccc21)c1ccccc1 (stereo not shown) | -3.69
CCC(=O)NC(C)Cc1c[nH]c2ccccc12 (stereo not shown) | -4.72
Cc1cc(-c2ccccc2)nc2oc3c(=O)n(C)cnc3c12 | 4.41
Cc1cc(-c2ccc(C)c(S(=O)(=O)NCCN(CC(C)C)CC(C)C)c2)on1 | -6.67
O=C(O)CCC(=O)Nc1ccc2nn(-c3ccccc3)nc2c1 | -3.98
Cc1cccc(CN(C)CCc2ccccn2)c1 | -1.62
COc1ccc(C)cc1NC(=O)c1ccc(C)cc1 | 2.93
CC(C)SC1=NSC2=NC(=O)/C(=C\c3coc4ccccc4c3=O)C(=N)N21 | 12.6

SMILES | % Inhibition @ 10 uM [%]
O=C(CSc1nc2c(c(=O)n1CCc1ccccc1)SCC2)NCC1CCCO1 (stereo not shown) | 0.0147
CCc1ccccc1NC(=O)CN(C1CCCCC1)S(C)(=O)=O | -4.66
O=C(O)c1cccc(N2C(=O)c3cccc4cccc(c34)C2=O)c1 | 8.19
Cc1ccccc1OCc1nn2c(Cn3cnc4ccccc43)nnc2s1 | -0.45
O=c1c(CN2CCSCC2)coc2c(Cl)cc(Cl)cc12 | -7.93
CCNS(=O)(=O)c1ccc(-c2cccc(C(=O)N[C@@H](CC(C)C)C(=O)NCC#N)c2)s1 | -1.82
COC(=O)C1=CN(Cc2ccc(F)cc2)C=C(C(=O)OC)C1c1ccc(OC)c(Br)c1 | 1.86
Cc1cc(C)n2nc3nc(N4CCOCC4)nc(-c4ccccc4)c3c2n1 | 3.34
c1ccc(-c2cc3ccsc3o2)cc1 | 16.9
CCN(CC)CCNC(=O)Cn1nc(C)n2c(cc3cc(C)ccc32)c1=O | 0.0198
CC(=O)c1c(C)nc2ccc(Cl)cc2c1-c1ccccc1 | -4.32
Cc1ccc(S(=O)(=O)N2CCC(C(=O)NCc3ccncc3)CC2)cc1 | -3.74
O=C1/C(=C/c2ccc([N+](=O)[O-])cc2)N2CCC1CC2 | -3.48
O=c1oc2c(cc(NS(=O)(=O)c3ccc(F)cc3)c3ccccc32)s1 | -2.54
O=C(ON/C(=N/Cc1ccccc1)c1ccc(Cl)cc1)c1cccs1 | -0.597
CC1C(C#N)=C(N)OC2=C1C(=O)CC(C)(C)C2 (stereo not shown) | -2.51
COc1ccc(Nc2nc(NCCO)c3ccccc3n2)c(OC)c1 | -2.65
CCOC(=O)N1CCC(NC(=O)CCc2c(C)nc3c(-c4ccc(F)cc4)c(C)nn3c2C)CC1 | -2.25
CCCCN(CC)S(=O)(=O)c1ccc2nc(O)cc(C(=O)NCCOC)c2c1 | -4.97
CCOC(=O)N1CCC(NC(=O)C2CCN(Cc3nc(-c4ccccc4C)oc3C)CC2)CC1 | -10.7
CCCN1CCN(C(=O)c2[nH]c3cc(OC)ccc3c2Sc2ccccc2)CC1 | -3.76
COc1cc(C(=O)Nc2cccc(C)c2C)cc(OC)c1OC | -0.872

SMILES | % Inhibition @ 10 uM [%]
CN(Cc1ccco1)C(=O)CCNS(=O)(=O)c1cc(Br)cnc1N | -1.56
CC(C)(C)c1csc(NC(=O)c2ccco2)n1 | -1.56
N#Cc1c2n(c3c(=O)n(Cc4ccccc4)cnc13)CCCCC2 | 4.16
CCOc1ccc(C(=O)Nc2cc(Cl)ccc2Cl)cc1 | -0.63
CCO/C(O)=C1\C(C)=NC2=C(C(=O)CC(C)(C)C2)C1c1cccc(Cl)c1 (stereo not shown) | 1.57
CCCCOc1ccc(/C=C2/SC(=O)N(CN3CCOCC3)C2=O)cc1 | -4.21
COc1ccc(/C=c2\sc3nnc(-c4cc(OC)c(OC)c(OC)c4)n3c2=O)cc1 | 1.63
CCOc1ccc(C(=O)Nc2ccc(S(N)(=O)=O)cc2)cc1 | 0.147
COCCCNC(=O)c1sc2nc(-c3ccccc3)cn2c1C | -1.89
O=C(NCc1ccco1)c1ccc(COCC(F)(F)F)cc1 | 2.1
CCOC(=O)C1CCCN(C2CCN(CCc3ccccc3)CC2)C1 (stereo not shown) | -7.02
CC(=O)c1cccc(Oc2ncnc3sc4c(c23)CCCC4)c1 | -2.42
CNC(=O)C1CCN(S(=O)(=O)c2ccc(C)cc2)CC1 | 0.161
Nc1cccc(NC(=O)c2ccc(Cl)cc2Cl)c1 | -7.11
CCOc1ccc(C2C3=C(O)CC(c4ccc(Cl)cc4)CC3=NC(C)=C2C(=O)OC)cc1OC (stereo not shown) | 0.146
CC(C)C[C@H](NC(=O)c1ccccc1-c1ccc(C(F)(F)F)cc1)C(=O)NCC(=O)NC(C)(C)C | 22.9
CCCS(=O)(=O)N1CCCC(C(=O)NCC2CCCO2)C1 (stereo not shown) | 1.62
CCSC1=C(C#N)C(c2sccc2C)CC(=O)N1 (stereo not shown) | 4.11
Cc1nc2ccn(Cc3cccs3)c(=O)c2cc1C(=O)NCCC1=CCCCC1 | -0.12
COc1ccc(OC)c(C2C=C(c3ccc(Cl)cc3)Nc3nnnn32)c1 (stereo not shown) | 0.0842
